From PubChem BioAssay AID504832 (National Center for Advancing Translational Sciences (NCATS), 2011)
The campaign covered roughly 310,000 compounds. About 18,000 (5.8%) were called active. The inconclusive results got no clear call from the source; some entries with a clear call stand among them for comparison. Calls follow the shape of the dose curve; as a rule, active = well fitted inhibition curve with a large enough effect; inconclusive = small, poorly fitted or top-dose-only effect, or another doubt; inactive = no such curve, though single readings can be large or run the other way. Potencies of inconclusive entries are left out as doubtful fits.

assay: Primary qHTS for delayed death inhibitors of the malarial parasite plastid, 48 hour incubation; conditions: P. falciparum luciferase growth in erythrocytes; series mostly up to 28.7 µM; activity change, negative = inhibition: at the top concentration
Method in brief: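 Growth was read as firefly luciferase luminescence after a 48 h, 37 C, 5% CO2 exposure of compounds to reporter-bearing P. falciparum cultures (0.1% parasitemia, 2% hematocrit final) in Albumax-supplemented RPMI 1640.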
% is scaled to controls: 0 for no effect and ±100 for the full control effect; potency is read from the fitted curve at half-maximal effect; tags tell the direction and shape of the fitted curve.

**Q.** With `COc1cc(Cl)ccc1OCc1cc(C(=O)N2CCCC(OC)C2)no1` (centres undefined) as the molecule, how does the “activity change, negative = inhibition” value read?
**A.** Its value is inactive: 29.1%.

**Q.** For `COc1cc2c(cc1OC)CN(c1nc(CN3CCOCC3)nc3sc4c(c13)CCC(C)C4)CC2` (centres undefined), which Potency is on record?
**A.** The Potency was inconclusive [inhibitor, partial curve, poor fit].

**Q.** Which Potency does the source give for `CC(C)OCCCn1c(=O)c2ccccc2n2c(CCC(=O)NC3CCN(Cc4ccccc4)CC3)nnc12` here?
**A.** The Potency was inconclusive [inhibitor, partial curve].

**Q.** For `COc1ccccc1NC(=O)c1ccccc1C(=O)O`, which “activity change, negative = inhibition” value is on record?
**A.** The value was inactive: 34.3%.

**Q.** With `CCOc1ccc(NC(=O)C2CCN(C(=O)NC3CCCCC3)CC2)cc1` as the molecule, how does the Potency read?
**A.** The Potency was inconclusive [inhibitor, partial curve, poor fit].

**Q.** For `CC1CCCCN1C(=O)COc1ccccc1F` (centres undefined), which “activity change, negative = inhibition” value is on record?
**A.** The value was inactive: 30.1%.

**Q.** With `Cc1[nH]c2ccccc2c1C(=O)C(=O)N1CC=C(c2ccccc2)CC1` as the molecule, how does the Potency read?
**A.** Its Potency is inconclusive [inhibitor, single point].

**Q.** For `CC(C)(C)OC(=O)N1CCC[C@H]1C(=O)N/N=C/c1ccc2nccnc2c1`, which Potency is on record?
**A.** The Potency was inconclusive [inhibitor, partial curve, poor fit].

**Q.** Which Potency does the source give for `CCCCNC(=O)c1sc2ncnc(N3CCc4ccccc4C3)c2c1C` here?
**A.** Its Potency is inconclusive [inhibitor, partial curve, poor fit].

**Q.** Which “activity change, negative = inhibition” value does the source give for `CCOc1ccc(NC(=O)c2cc(F)c(F)cc2Cl)cc1OCC` here?
**A.** The value was inactive: 0%.

**Q.** With `O=C(Cc1ccc(Br)c2ccccc12)N/N=C/c1ccccn1` as the molecule, how does the Potency read?
**A.** The Potency was inconclusive [inhibitor, partial curve, poor fit].

**Q.** Which “activity change, negative = inhibition” value does the source give for `CCOC(=O)Cn1nc(C(F)F)c(Br)c1C` here?
**A.** The value was inactive: 12.7%.

**Q.** With `Cc1ccc(-c2cc(C(=O)NC3=NCCS3)c3cc(Br)ccc3n2)o1` as the molecule, how does the Potency read?
**A.** Its Potency is active: 9.28 µM.

**Q.** With `CCN(CC)c1ccc(NC(=S)NC(=O)C2CCC2)cc1` as the molecule, how does the “activity change, negative = inhibition” value read?
**A.** Its value is inactive: -28.7%.

**Q.** With `O=C(Nc1ccc(OCC(=O)N2CCN(S(=O)(=O)c3ccccc3)CC2)cc1)c1ccco1` as the molecule, how does the Potency read?
**A.** Its Potency is inconclusive [inhibitor, single point].

**Q.** With `COc1cc(CCN2C(=O)N[C@@H](CCc3ccccc3)C(C(C)=O)=C2C)cc(OC)c1OC` as the molecule, how does the Potency read?
**A.** The Potency was inconclusive [inhibitor, partial curve, poor fit].

**Q.** For `CCc1noc(C)c1C(=O)N1CCCC(CCC(=O)NCc2ccc(F)c(F)c2)C1` (centres undefined), which Potency is on record?
**A.** Its Potency is inconclusive [inhibitor, partial curve].

**Q.** With `Cc1ccccc1N(Cc1cc(=O)[nH]c2ccccc12)C(=O)CCl` as the molecule, how does the Potency read?
**A.** The Potency was active: 4.65 µM.

**Q.** Which Potency does the source give for `CCOc1ccccc1NC(=O)CNS(=O)(=O)c1ccc2nc(C)sc2c1` here?
**A.** The Potency was inconclusive [inhibitor, single point].

**Q.** For `COCCCNC(=O)CCn1c(=O)c2ccccc2n(CC(=O)NCCc2ccc(OC)c(OC)c2)c1=O`, which Potency is on record?
**A.** Its Potency is inconclusive [inhibitor, single point].

**Q.** For `COc1ccc(S(=O)(=O)N(C)CC(=O)NCc2ccc3c(c2)OCO3)cc1`, which “activity change, negative = inhibition” value is on record?
**A.** Its value is inactive: 16.7%.

**Q.** With `CCN(c1cc(C)cc(C)c1)S(=O)(=O)c1nnc(NC(=O)C(C)C)s1` as the molecule, how does the Potency read?
**A.** The Potency was inconclusive [inhibitor, single point].

**Q.** With `Cc1nn(-c2ccc(F)cc2)c(Cl)c1C(=O)N(C)CC(=O)Nc1cccc(F)c1` as the molecule, how does the Potency read?
**A.** Its Potency is inconclusive [inhibitor, partial curve, poor fit].

**Q.** Which “activity change, negative = inhibition” value does the source give for `CCOC(=O)C1(Cc2cccc(OC)c2)CCCN(C(=O)CNC(C)=O)C1` (centres undefined) here?
**A.** Its value is inactive: 0.662%.

**Q.** Which “activity change, negative = inhibition” value does the source give for `NC(=O)C1CCN(C(=S)NCCc2ccccc2)CC1` here?
**A.** Its value is inactive: -1.61%.

**Q.** Which Potency does the source give for `CCCn1c(=O)c2c(nc3n2CC(C)CN3Cc2ccccc2)n(C)c1=O` (centres undefined) here?
**A.** The Potency was inconclusive [inhibitor, full curve].

**Q.** For `CCn1ncc([N+](=O)[O-])c1C(=O)NC1CCCCC1`, which “activity change, negative = inhibition” value is on record?
**A.** The value was inactive: 20.8%.

**Q.** For `Cc1cc(OCC(=O)N(Cc2ccco2)c2c(N)n(Cc3ccccc3)c(=O)[nH]c2=O)ccc1Cl`, which Potency is on record?
**A.** Its Potency is inconclusive [inhibitor, single point].

**Q.** For `CC1(C)N=C(N)NC(Nc2ccccc2)=N1`, which Potency is on record?
**A.** The Potency was inconclusive [inhibitor, full curve].

**Q.** For `CC(C)CC(=O)Nc1ccc(S(=O)(=O)N2CCCC2)cc1`, which “activity change, negative = inhibition” value is on record?
**A.** Its value is inactive: -1.57%.

**Q.** With `CSc1ccc(C2C(C(=O)c3ccco3)=C(O)C(=O)N2c2nnc(SC)s2)cc1` (centres undefined) as the molecule, how does the “activity change, negative = inhibition” value read?
**A.** The value was inactive: 65.3%.

**Q.** For `O=C(NNS(=O)(=O)c1ccccc1)c1sccc1-n1cccc1`, which “activity change, negative = inhibition” value is on record?
**A.** The value was inactive: -6.09%.

**Q.** For `O=C(NCC1CCCO1)C(c1ccc(F)cc1)N(Cc1ccc(F)cc1)C(=O)Cn1nnc(-c2cccs2)n1` (centres undefined), which Potency is on record?
**A.** Its Potency is inconclusive [inhibitor, partial curve, poor fit].

**Q.** For `CC(C)(C)OC(=O)N[C@@H](C(=O)OC(C)(C)C)c1ccc(Br)cc1`, which Potency is on record?
**A.** The Potency was inconclusive [inhibitor, single point].

**Q.** For `COc1ccc(/C=C(\C#N)C(=O)NCC(c2ccc(F)cc2)N2CCOCC2)cc1` (centres undefined), which Potency is on record?
**A.** The Potency was inconclusive [inhibitor, single point].

**Q.** With `COCCN(C(=O)C1CC1)c1nnc(-c2cccc(C)c2)s1` as the molecule, how does the “activity change, negative = inhibition” value read?
**A.** Its value is inactive: 10.9%.

**Q.** For `COc1ccc(CNC(=O)CN(c2ccc(C)cc2)S(=O)(=O)c2c(C)nn(C)c2C)cc1`, which Potency is on record?
**A.** The Potency was inconclusive [inhibitor, single point].

**Q.** For `COc1ccc(-c2cc(C(F)(F)F)n3nc(C(=O)N4CCCCC4)cc3n2)cc1`, which Potency is on record?
**A.** Its Potency is inconclusive [inhibitor, single point].

**Q.** For `CC1(C)Cc2cccc(OCC(=O)N3CCN(c4ccc([N+](=O)[O-])cc4)CC3)c2O1`, which Potency is on record?
**A.** The Potency was inconclusive [inhibitor, partial curve].

**Q.** With `Cn1c(CCNC(=O)c2ccccc2Cl)n[nH]c1=S` as the molecule, how does the “activity change, negative = inhibition” value read?
**A.** The value was inactive: 48.3%.

**Q.** With `O=C1N(c2ccccc2C(F)(F)F)O[C@@]1(c1ccccc1)C1CCCC1` as the molecule, how does the Potency read?
**A.** Its Potency is active: 0.738 µM.

**Q.** For `O=C(Cc1cccc2ccccc12)N/N=C/c1ccc(Sc2nc3ccccc3s2)o1`, which Potency is on record?
**A.** The Potency was inconclusive [inhibitor, single point].

**Q.** With `CC(C)(C)OC(=O)NCCCC[C@H](NC(=O)c1[nH]cnc1C(=O)Nc1ccc(CNC(=O)OC(C)(C)C)cc1)C(=O)OC(C)(C)C` as the molecule, how does the Potency read?
**A.** The Potency was active: 3.29 µM.

**Q.** Which Potency does the source give for `COc1ccc(/C([O-])=C(/C(=S)Nc2ccc(C)c(C)c2)n2c[n+](C)c3ccccc32)cc1OC` here?
**A.** Its Potency is inconclusive [inhibitor, partial curve].
